# Some of the results follow.
# B1: PMA (Polygonatum multiflorum) (protein)
# chain: LLTTTLFVFISSTRSLASTNVLYSDVGNAILNAKESLIYGDYRLDMQSDCNLVLYNKAAPYWASGTRWSWGGNCHLNLQSNGELVMYAYLGRTRIAIWRSGIISATGSYALVLKYDGALHVHGPSLWSTNATGPTTPTTASWSIDSTLWSGDVATIGPTIANGDYKLELLDTCNLTLSNTKTGQVLWYTNTTDWVHDCYVNIEGNGELKIKYLGGATLWSNKVGAGYTNNYVLGLRPDGKLDTYNAPIWSPTIGPGVHVAPAVYNASSNAVAAEGNGEKIAMVTGRAKNST
# Assays:
# Assay in all cases: glycan array binding signal (z-score within array); higher = stronger binding
# Settings in all cases: glycan notation: IUPAC condensed, linker removed
# [1] = biological target: Fuc(a1-2)Gal
# How it was run: (§1)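 Glycan array binding is given as a within-array Z-score, which can be read as non-binding when negative. The arrays, 3228 of them, came from the Consortium for Functional Glycomics database and were retained only where the protein sequence was available. Z-scores were averaged across arrays of the same protein sequence at different concentrations or buffers and across linkers.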
# [2] = biological target: Fuc(a1-2)Gal(b1-3)GalNAc
# How it was run: as §1
# [3] = biological target: Fuc(a1-2)Gal(b1-3)GalNAc(b1-3)Gal
# How it was run: as §1
# [4] = biological target: Fuc(a1-2)Gal(b1-3)GalNAc(b1-3)Gal(a1-4)Gal(b1-4)Glc
# How it was run: as §1
# [5] = biological target: Fuc(a1-2)Gal(b1-3)GalNAc(b1-4)[Neu5Ac(a2-3)]Gal(b1-4)Glc
# How it was run: as §1
# [6] = biological target: Fuc(a1-2)Gal(b1-3)GlcNAc
# How it was run: as §1
# [7] = biological target: Fuc(a1-2)Gal(b1-3)GlcNAc(b1-3)Gal(b1-4)Glc
# How it was run: as §1
# [8] = biological target: Fuc(a1-2)Gal(b1-3)[Fuc(a1-4)]GlcNAc
# How it was run: as §1
# [9] = biological target: Fuc(a1-2)Gal(b1-4)Glc
# How it was run: as §1
# [10] = biological target: Fuc(a1-2)Gal(b1-4)GlcNAc
# How it was run: as §1
# [11] = biological target: Fuc(a1-2)Gal(b1-4)GlcNAc(b1-3)Gal(b1-4)GlcNAc
# How it was run: as §1
# [12] = biological target: Fuc(a1-2)Gal(b1-4)GlcNAc(b1-3)Gal(b1-4)GlcNAc(b1-3)Gal(b1-4)GlcNAc
# How it was run: as §1
# [13] = biological target: Fuc(a1-2)Gal(b1-4)[Fuc(a1-3)]GlcNAc
# How it was run: as §1
# [14] = biological target: Fuc(a1-2)Gal(b1-4)[Fuc(a1-3)]GlcNAc(b1-3)Gal(b1-4)[Fuc(a1-3)]GlcNAc
# How it was run: as §1
# [15] = biological target: Fuc(a1-2)Gal(b1-4)[Fuc(a1-3)]GlcNAc(b1-3)Gal(b1-4)[Fuc(a1-3)]GlcNAc(b1-3)Gal(b1-4)[Fuc(a1-3)]GlcNAc
# How it was run: as §1
# [16] = biological target: Fuc(a1-2)GlcNAc
# How it was run: as §1
# [17] = biological target: Fuc(a1-2)[Gal(a1-3)]Gal
# How it was run: as §1
# [18] = biological target: Fuc(a1-2)[Gal(a1-3)]Gal(b1-3)GlcNAc
# How it was run: as §1
# [19] = biological target: Fuc(a1-2)[Gal(a1-3)]Gal(b1-4)Glc
# How it was run: as §1
# [20] = biological target: Fuc(a1-2)[Gal(a1-3)]Gal(b1-4)GlcNAc
# How it was run: as §1
# [21] = biological target: Fuc(a1-2)[Gal(a1-3)]Gal(b1-4)[Fuc(a1-3)]GlcNAc
# How it was run: as §1
# [22] = biological target: Fuc(a1-2)[Gal(a1-4)]Gal(b1-4)GlcNAc
# How it was run: as §1
# [23] = biological target: Fuc(a1-2)[GalNAc(a1-3)]Gal
# How it was run: as §1
# [24] = biological target: Fuc(a1-2)[GalNAc(a1-3)]Gal(b1-3)GlcNAc
# How it was run: as §1
# [25] = biological target: Fuc(a1-2)[GalNAc(a1-3)]Gal(b1-4)Glc
# How it was run: as §1
# [26] = biological target: Fuc(a1-2)[GalNAc(a1-3)]Gal(b1-4)GlcNAc
# How it was run: as §1
# [27] = biological target: Fuc(a1-2)[GalNAc(a1-3)]Gal(b1-4)[Fuc(a1-3)]GlcNAc
# How it was run: as §1
# [28] = biological target: Fuc(a1-2)[GalNAc(a1-4)]Gal(b1-4)GlcNAc
# How it was run: as §1
# [29] = biological target: Fuc(a1-2)[GalNAc(b1-3)]Gal
# How it was run: as §1
# [30] = biological target: Fuc(a1-3)GlcNAc
# How it was run: as §1
# [31] = biological target: Fuc(a1-3)[Gal(b1-4)]GlcNAc
# How it was run: as §1
# [32] = biological target: Fuc(a1-3)[Gal(b1-4)]GlcNAc(b1-4)Gal(b1-4)[Fuc(a1-3)]GlcNAc
# How it was run: as §1
# [33] = biological target: Fuc(a1-3)[Gal(b1-4)]GlcNAc(b1-4)Gal(b1-4)[Fuc(a1-3)]GlcNAc(b1-4)Gal(b1-4)[Fuc(a1-3)]GlcNAc
# How it was run: as §1
# [34] = biological target: Fuc(a1-3)[Gal3S(b1-4)]GlcNAc
# How it was run: as §1
# [35] = biological target: Fuc(a1-3)[GalNAc(b1-4)]GlcNAc
# How it was run: as §1
# [36] = biological target: Fuc(a1-4)GlcNAc
# How it was run: as §1
# [37] = biological target: Fuc(b1-3)GlcNAc
# How it was run: as §1
# [38] = biological target: Gal(a1-2)Gal
# How it was run: as §1
# [39] = biological target: Gal(a1-3)Gal
# How it was run: as §1
# [40] = biological target: Gal(a1-3)Gal(b1-3)GlcNAc
# How it was run: as §1
# [41] = biological target: Gal(a1-3)Gal(b1-4)Glc
# How it was run: as §1
# [42] = biological target: Gal(a1-3)Gal(b1-4)GlcNAc
# How it was run: as §1
# [43] = biological target: Gal(a1-3)Gal(b1-4)[Fuc(a1-3)]GlcNAc
# How it was run: as §1
# [44] = biological target: Gal(a1-3)GalNAc
# How it was run: as §1
# [45] = biological target: Gal(a1-3)[Gal(a1-4)]Gal(b1-4)GlcNAc
# How it was run: as §1
# [46] = biological target: Gal(a1-4)Gal(b1-4)Glc
# How it was run: as §1
# [47] = biological target: Gal(a1-4)Gal(b1-4)GlcNAc
# How it was run: as §1
# [48] = biological target: Gal(a1-4)GlcNAc
# How it was run: as §1
# [49] = biological target: Gal(a1-6)Glc
# How it was run: as §1
# [50] = biological target: Gal(b1-2)Gal
# How it was run: as §1
# [51] = biological target: Gal(b1-3)Gal
# How it was run: as §1
# [52] = biological target: Gal(b1-3)GalNAc
# How it was run: as §1
# [53] = biological target: Gal(b1-3)GalNAc(b1-3)Gal(a1-4)Gal(b1-4)Glc
# How it was run: as §1
# [54] = biological target: Gal(b1-3)GalNAc(b1-4)Gal(b1-4)Glc
# How it was run: as §1
# [55] = biological target: Gal(b1-3)GalNAc(b1-4)[Neu5Ac(a2-3)]Gal(b1-4)Glc
# How it was run: as §1
# [56] = biological target: Gal(b1-3)GlcNAc
# How it was run: as §1
# [57] = biological target: Gal(b1-3)GlcNAc(b1-3)Gal(b1-4)Glc
# How it was run: as §1
# [58] = biological target: Gal(b1-3)GlcNAc(b1-3)Gal(b1-4)GlcNAc
# How it was run: as §1
# [59] = biological target: Gal(b1-3)[Fuc(a1-4)]GlcNAc
# How it was run: as §1
# [60] = biological target: Gal(b1-3)[Fuc(a1-4)]GlcNAc(b1-3)Gal(b1-4)GlcNAc
# How it was run: as §1
binder,measurement,setting,value
B1,glycan array binding signal (z-score),[1],-0.247
same,glycan array binding signal (z-score),[2],-0.246
same,glycan array binding signal (z-score),[3],-0.24
same,glycan array binding signal (z-score),[4],-0.24
same,glycan array binding signal (z-score),[5],-0.237
same,glycan array binding signal (z-score),[6],-0.249
same,glycan array binding signal (z-score),[7],-0.225
same,glycan array binding signal (z-score),[8],-0.265
same,glycan array binding signal (z-score),[9],-0.26
same,glycan array binding signal (z-score),[10],-0.236
same,glycan array binding signal (z-score),[11],-0.247
same,glycan array binding signal (z-score),[12],-0.254
same,glycan array binding signal (z-score),[13],-0.232
same,glycan array binding signal (z-score),[14],-0.223
same,glycan array binding signal (z-score),[15],-0.235
same,glycan array binding signal (z-score),[16],-0.239
same,glycan array binding signal (z-score),[17],-0.253
same,glycan array binding signal (z-score),[18],-0.256
same,glycan array binding signal (z-score),[19],-0.26
same,glycan array binding signal (z-score),[20],-0.247
same,glycan array binding signal (z-score),[21],-0.233
same,glycan array binding signal (z-score),[22],-0.236
same,glycan array binding signal (z-score),[23],-0.24
same,glycan array binding signal (z-score),[24],-0.246
same,glycan array binding signal (z-score),[25],-0.249
same,glycan array binding signal (z-score),[26],-0.243
same,glycan array binding signal (z-score),[27],-0.236
same,glycan array binding signal (z-score),[28],-0.24
same,glycan array binding signal (z-score),[29],0.34
same,glycan array binding signal (z-score),[30],-0.218
same,glycan array binding signal (z-score),[31],-0.226
same,glycan array binding signal (z-score),[32],-0.221
same,glycan array binding signal (z-score),[33],-0.259
same,glycan array binding signal (z-score),[34],-0.245
same,glycan array binding signal (z-score),[35],-0.248
same,glycan array binding signal (z-score),[36],-0.26
same,glycan array binding signal (z-score),[37],-0.226
same,glycan array binding signal (z-score),[38],-0.237
same,glycan array binding signal (z-score),[39],-0.236
same,glycan array binding signal (z-score),[40],-0.254
same,glycan array binding signal (z-score),[41],-0.238
same,glycan array binding signal (z-score),[42],-0.237
same,glycan array binding signal (z-score),[43],-0.24
same,glycan array binding signal (z-score),[44],-0.247
same,glycan array binding signal (z-score),[45],-0.255
same,glycan array binding signal (z-score),[46],-0.244
same,glycan array binding signal (z-score),[47],-0.248
same,glycan array binding signal (z-score),[48],-0.224
same,glycan array binding signal (z-score),[49],-0.256
same,glycan array binding signal (z-score),[50],-0.244
same,glycan array binding signal (z-score),[51],-0.195
same,glycan array binding signal (z-score),[52],-0.252
same,glycan array binding signal (z-score),[53],0.708
same,glycan array binding signal (z-score),[54],-0.245
same,glycan array binding signal (z-score),[55],-0.251
same,glycan array binding signal (z-score),[56],-0.255
same,glycan array binding signal (z-score),[57],-0.252
same,glycan array binding signal (z-score),[58],-0.257
same,glycan array binding signal (z-score),[59],-0.256
same,glycan array binding signal (z-score),[60],-0.257
